In all, about 410,000 compounds went through this assay and about 5,000 (1.2%) were called active. The shares of active, inactive and inconclusive entries below differ from those in the screen. Calls follow the shape of the dose curve; as a rule, active = well fitted inhibition curve with a large enough effect; inconclusive = small, poorly fitted or top-dose-only effect; inactive = no such curve, though single readings can be large or run the other way. A potency beside an inconclusive call is a rough fit, not a confirmed value.
Experiment: qHTS for Inhibitors of TGF-b; also: nearly all actives have a fitted effect of over 65% in size
Details: HepG2 CAGA-GFP TGF-b/SMAD3 reporter, GFP fluorescence, 18 h, TGF-beta stimulated, 500 pg/mL final; series mostly up to 46.1 µM
How it was run: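 Inhibition of TGF-beta-driven CAGA-GFP reporter expression in HEPG2 cells is measured by cellular GFP fluorescence after 18 h stimulation with 500 pg/mL recombinant TGF-beta in 1% FBS medium at 37 degrees C.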
Potency is read from the fitted curve at half-maximal effect; tags tell the direction and shape of the fitted curve.

Compound	Potency
CC(C)c1ccc(S(=O)(=O)c2n[nH]n3c2nc(=O)c2ccccc23)cc1	inconclusive: 35.5 µM [inhibitor, single point]
COc1ccc(C(C)(NC(C)=O)c2nc(-c3cc(F)cc(F)c3)cs2)cc1 (configuration not stated)	inconclusive: 12.6 µM [inhibitor, single point]
OCC1(Cc2ccc(F)cc2)CCCN(Cc2ccc(F)cc2Cl)C1 (configuration not stated)	inconclusive: 35.5 µM [inhibitor, single point]
O=C1/C(=C/c2ccc(O)cc2)COc2ccccc21	inconclusive: 25.1 µM [inhibitor, single point]
CCOC(=O)C1(CCOc2ccccc2)CCN(Cc2cc(OC)ccc2OC)CC1	inconclusive: 35.5 µM [inhibitor, single point]
Cc1cc(N2CCCCC2)nc(N2CCCCC2)n1	inconclusive: 6.31 µM [inhibitor, single point]
CC1(c2nnc(-c3cccc(Cl)c3)o2)CC(c2ccc(Cl)cc2)=NO1 (configuration not stated)	active: 15.8 µM
Cc1ccc(S(=O)(=O)c2cn(CC(=O)Nc3ccc4c(c3)OCO4)c3ccccc3c2=O)cc1C	inconclusive: 3.98 µM [inhibitor, full curve]
CSc1ccc(NC(=O)NCCCN2CCC(Cc3ccccc3)CC2)cc1	inconclusive: 35.5 µM [inhibitor, single point]
NC(c1csc(Nc2cnccn2)n1)C1CCCCC1 (configuration not stated)	inactive
Cc1ccc(C(=O)NNC(=O)Cn2nnc3ccccc32)cc1	inactive
CC(=O)c1c(N2CCN(Cc3ccccc3)CC2)[nH]c(-c2ccccc2)nc1=S	inconclusive: 17.8 µM [inhibitor, partial curve, poor fit]
Cc1cc(C(=O)N2CC(C)CC(C)C2)n(-c2ccccc2)n1 (configuration not stated)	inconclusive: 3.16 µM [inhibitor, partial curve, poor fit]
CCOC(=O)c1sc2nc(C)c3c(c2c1N)CC(C)(C)OC3	inconclusive: 20 µM [inhibitor, single point]
S=c1nccc(-c2ccc(Cl)cc2)[nH]1	inactive
Cc1ccc(Cn2c(SCC(C)C)nc3c2c(=O)n(C)c(=O)n3C)cc1	inconclusive: 6.31 µM [inhibitor, single point]
Cc1ccc(-c2nnc(Nc3ccc(O)cc3)c3ccccc23)cc1S(=O)(=O)N1CCCCC1	active: 2 µM
CC1(C)CC(NC(=O)C2CCN(S(=O)(=O)c3ccc(Cl)c(C(F)(F)F)c3)CC2)CC(C)(C)N1	inactive
Clc1cccc(Cl)c1/C=C/c1nc2ccccc2[nH]1	inconclusive: 35.5 µM [inhibitor, single point]
CCc1ccc(-n2c(C)n[nH]c2=S)cc1	inactive
O=c1[nH]c(=O)n(C2CC(O)C(CO)O2)cc1Br (configuration not stated)	inactive
Cc1ccc2nc(-c3ccc4c(c3)OCCO4)cc(C(=O)O)c2c1	inconclusive: 5.62 µM [inhibitor, single point]
CS/C(N)=N/N=C/c1c(O)ccc2ccccc12	inconclusive: 22.4 µM [inhibitor, single point]
C#CCOCCOCCOCCNc1nc(N2CCN(C(=O)Cn3cc(CC(C)O)nn3)CC2)nc(N2CCN(C(=O)[C@H](CCCCN)n3cc(CCC(=O)O)nn3)CC2)n1 (some centres not stated)	inconclusive: 1.12 µM [inhibitor, full curve, poor fit]

Compound	Potency
O=C(CNC(=O)C1COc2ccccc2O1)N/N=C/c1ccc([N+](=O)[O-])cc1 (configuration not stated)	inconclusive: 6.31 µM [inhibitor, single point]
Cc1nnc(N/N=C/c2ccc(Br)cc2)n1N	inconclusive: 14.1 µM [inhibitor, single point]
CC(=C/c1ccc(C(C)C)cc1)/C=N/NC(=O)Cn1nc(C)cc1C	inconclusive: 35.5 µM [inhibitor, single point]
COc1cc(CCC(C)NCc2ccccc2)ccc1O (configuration not stated)	inactive
CC(=O)N1CCN(c2csc3ccc(Br)cc3c2=O)CC1	inconclusive: 35.5 µM [inhibitor, single point]
NC(=O)c1cccc(-c2cnc(N)c(C(=O)c3cccnc3)n2)c1	active: 10 µM
O=C(c1ccccc1Cc1ccccc1)N1CCN(S(=O)(=O)c2ccccc2[N+](=O)[O-])CC1	inconclusive: 22.4 µM [inhibitor, single point]
CCCOc1ccc(C(=O)CCN2CCCCC2)cc1	inconclusive: 35.5 µM [inhibitor, partial curve, poor fit]
CC(CNC(=S)Nc1cc(F)cc(F)c1)CSc1ccc(Cl)cc1 (configuration not stated)	active: 17.8 µM
COc1cccc(NC(=O)c2cnc(SC)nc2)c1	inconclusive: 35.5 µM [inhibitor, single point]
CCOc1ccccc1NC(=O)C(NCCc1ccc(OC)cc1)c1ccccc1 (configuration not stated)	inactive
COc1ccccc1NC(=O)N1CCN(S(C)(=O)=O)CC1	inconclusive: 0.112 µM [inhibitor, full curve, poor fit]
O=C(c1cc(S(=O)(=O)Nc2ccccc2F)c(Cl)cc1Cl)N1CCN(CCO)CC1	inconclusive: 0.158 µM [inhibitor, full curve]
O=C(COc1ccc2ccc(=O)oc2c1)Nc1ccc(N2CCCCC2)cc1	inactive
CCOc1ccc(N(CC(=O)N/N=C/c2cc([N+](=O)[O-])ccc2Cl)S(C)(=O)=O)cc1	active: 7.94 µM
COc1cccc(C(=O)NC2CC3CCCC(C2)N3CC(=O)Nc2ccccc2C(F)(F)F)c1 (configuration not stated)	inconclusive: 35.5 µM [inhibitor, single point]
CN(C)CCOC(=O)c1cccc(Br)c1	inconclusive: 20 µM [inhibitor, partial curve]
COC(=O)c1ccccc1NC(=O)N1CCC(n2c(C)nc3cccnc32)CC1	inactive
CN(C)C(=O)c1ccc(Nc2nnc(-c3ccc(O)cc3)c3ccccc23)cc1	inactive
Cc1ccc(OCCNC(=O)C(C)SCC(=O)Nc2ccc(F)cc2)cc1 (configuration not stated)	inactive
COC(=O)[C@@]12CCCCN1[C@H](c1ccc(-c3ccc(F)cc3)c(OC)c1)[C@@H]1C(=O)N(C)C(=O)[C@@H]12	inconclusive: 35.5 µM [inhibitor, single point]
CCOC(=O)c1c(NC(NC(C)=O)C(Cl)(Cl)Cl)sc2c1CCCC2 (configuration not stated)	inconclusive: 17.8 µM [inhibitor, single point]
Cc1ccc(S(=O)(=O)Nc2c(C)nn(C)c2C)cc1C	inactive
CN(CCCC1CCCC1)C(=O)c1cc(COc2ccc(F)cc2F)on1	active: 10 µM

Compound	Potency
CCOC(=O)/C(=N\Nc1ncnc2ccccc12)c1ccc(OC)cc1	inconclusive: 22.4 µM [inhibitor, single point]
Cc1ccc(C(=S)N2CCN(Cc3ccccc3)CC2)cc1	inconclusive: 35.5 µM [inhibitor, single point]
CCOC(=O)c1ccc(NC(=O)CN2CCc3ccccc3C2)cc1	inactive
CCc1ccc(NC(=O)Cn2nnc(-c3ccc(C)cc3-n3cnnn3)n2)cc1	inconclusive: 35.5 µM [inhibitor, single point]
Cc1ccc(-c2csc3ncnc(NCCC(=O)O)c23)cc1C	inactive
CC1=C(CC(=O)c2ccccc2)C(=O)c2ccccc2C1=O	active: 6.31 µM
COc1ccc(-c2noc(CCC(=O)Nc3cc(OC)ccc3OC)n2)cc1	inconclusive: 35.5 µM [inhibitor, single point]
NCCCCCNC(=O)/C=N\O	inactive
Cc1cc2c(n1-c1ccc(C(=O)NCc3ccc(OC(C)C)cc3)cc1)CCCC2	inconclusive: 15.8 µM [inhibitor, single point]
COc1cc(-c2oc3ccc(C)cc3c(=O)c2O)cc(OC)c1OC	active: 2.51 µM
CSCCC(NC(=O)c1cccc(C)c1)C(=O)OCC(=O)Nc1c(C)nn(-c2ccccc2)c1C (configuration not stated)	inactive
O=C1c2ccccc2NC(c2ccc(-c3ccccc3F)o2)N1O (configuration not stated)	inconclusive: 0.316 µM [inhibitor, full curve, poor fit]
CC1(C(=O)NCc2cccc3ccccc23)CCN1CCc1ccccc1 (configuration not stated)	inconclusive: 20 µM [inhibitor, single point]
Cc1noc(C(=O)Nc2cccc(O)c2)c1Cl	inconclusive: 35.5 µM [inhibitor, single point]
CCOC(=O)C1CCN(S(=O)(=O)c2ccc3c4c(cccc24)C(=O)N3CC)CC1	inactive
CN(Cc1ccccc1)C(=O)c1cc(-c2cccc(Cl)c2)on1	inconclusive: 35.5 µM [inhibitor, single point]
CC1(C)CC(=O)C(C(=S)Nc2ccccc2)=C(NCCN2CCOCC2)C1	inactive
COc1ccc(C2C(C#N)=C(C)NC3=C2C(=O)c2ccccc23)cc1 (configuration not stated)	inactive
COc1ccccc1NC(=O)CN1CCN(CC(=O)Nc2ccc3c(c2)OCO3)CC1	inconclusive: 3.16 µM [inhibitor, single point]
O=C(/C=C/c1ccc(F)cc1)NC(=S)N1CCCCC1c1cccnc1 (configuration not stated)	inactive
Nc1cc2c(cc1C(=O)c1cccc(Br)c1)OCCO2	inconclusive: 4.47 µM [inhibitor, single point]
Fc1ccc(-c2nc3c4ccccc4ccn3c2Cc2cccc(Cl)c2)cc1	inconclusive: 0.316 µM [inhibitor, full curve, poor fit]
CC(NC(N)=O)C(=O)Nc1ccc(Cl)c(S(=O)(=O)Nc2ccc(Br)cc2)c1 (configuration not stated)	inactive
CCn1c(SCC(=O)N/N=C/C=C/c2ccccc2[N+](=O)[O-])nnc1-c1ccccc1	inconclusive: 17.8 µM [inhibitor, partial curve, poor fit]

Source: PubChem BioAssay AID588855 (National Center for Advancing Translational Sciences (NCATS), 2011)
